From a compilation of properties of binary mixtures (doi:10.1016/0040-6031(70)80012-0)
Some of these densities may be calculated back from excess volumes.

Assay: xn = mol fraction of the nth substance listed
Settings: 101 kPa

CCCC[N+]1(C)CCCC1.[Br-] + O
mass density (308.15 K, x2 = 0.72): 1201.5 kg/m3 | mass density (308.15 K, x2 = 0.9439): 1087.5 kg/m3 | mass density (313.15 K, x2 = 0.8717): 1145.5 kg/m3 | mass density (338.15 K, x2 = 0.72): 1180.5 kg/m3 | mass density (343.15 K, x2 = 0.8717): 1123.5 kg/m3

CCC[N+]1(C)CCCC1.[Br-] + O
mass density (303.15 K, x2 = 0.7618): 1222.5 kg/m3 | mass density (303.15 K, x2 = 0.8315): 1193.5 kg/m3 | mass density (323.15 K, x2 = 0.8315): 1179.5 kg/m3 | mass density (343.15 K, x2 = 0.7862): 1185.5 kg/m3

CCCCC[N+]1(C)CCCC1.[Br-] + O
mass density (333.15 K, x2 = 0.9687): 1034.5 kg/m3 | mass density (338.15 K, x2 = 0.5903): 1169.5 kg/m3
